# Results reported in the supplement of paper PMC9135407.
# Values joined by “and” are separate entries in the source; they are usually repeats but may differ in a detail not shown here. Equal entries are not always repeated. Structures can show the parent of a compound that is named as a salt. In all, about 5,800 compounds went through this assay and about 620 (11%) showed activity.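 Rule for the calls: active = score above a cut-off or among the top three wells of a plate; in these data no inactive exceeds 0.85.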 This is a selection; strong and weak results do not stand in their true shares.
# System: primary human hepatic stellate cells (donor 1)
# Assay: scaled lipid accumulation score (0 = DMSO-like, 1 = nortriptyline-like); higher = stronger HSC inactivation (lipid re-accumulation), active = hit call of the paper
# Details: 48 h
# Procedure: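 Primary lipid accumulation screen in primary human hepatic stellate cell myofibroblasts (donor 1, passage 8) in 384-well plates. 100 nL of library compound was pin-transferred into 30 µL medium in duplicate, and cells were treated for 48 h. The 'Scaled' score combines distance from plate baseline, toxicity and reproducibility penalties, and is normalised to nortriptyline (positive) and DMSO (negative) controls on each plate. A hit is defined as scaled >0.85 or among the top 3 wells per plate.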
# [1] = library stock concentration: 3.33 mM
# [2] = library stock concentration: 10 mM
# [3] = library stock concentration: 1 mM
# [4] = library stock concentration: 6 mM
# [5] = library stock concentration: 400 uM
# [6] = library stock concentration: 2 mM
# [7] = library stock concentration: 80 uM
smiles,measurement,setting,value
COc1ccccc1N1CCN(CC(O)COc2cccc3ccccc23)CC1 (centres undefined) [Naftopidil DiHCl],scaled lipid accumulation score,[1],inactive: ≤ 0
same,scaled lipid accumulation score,[2],inactive: ≤ 0
COc1ccccc1N1CCN(CC(O)COc2cccc3ccccc23)CC1 (centres undefined) [Naftopidil dihydrochloride],scaled lipid accumulation score,,inactive: ≤ 0
same,scaled lipid accumulation score,[2],inactive: 0.725
COc1ccccc1N1CCN(CC(O)COc2cccc3ccccc23)CC1 (centres undefined) [Naftopidil hydrochloride],scaled lipid accumulation score,[2],inactive: 0.409
COc1ccccc1N1CCN(CC(O)COc2cccc3ccccc23)CC1 (centres undefined) [Naftopidil 2HCl],scaled lipid accumulation score,library stock concentration: 5.1 mM,inactive: ≤ -0.006
COc1ccccc1N1CCN(CC(O)COc2cccc3ccccc23)CC1 (centres undefined) [Naftopidil],scaled lipid accumulation score,[1],inactive: ≤ 0
same,scaled lipid accumulation score,[2],inactive: 0.03
COc1ccccc1N1CCN(CC(O)COc2cccc3ccccc23)CC1 (centres undefined),scaled lipid accumulation score,[2],inactive: 0.313
CCCCC/C=C/C/C=C/C/C=C/C/C=C/CCCC(=O)Oc1ccc2ccc(=O)oc2c1 [7-hydroxycoumarinyl Arachidonate],scaled lipid accumulation score,[3],inactive: ≤ 0
Cc1nnc(-c2ccc3occ(-c4ccc([S+](C)[O-])cc4)c3c2)o1 (centres undefined),scaled lipid accumulation score,[2],inactive: 0.106
COC(=O)c1ccccc1O [Methyl salicylate],scaled lipid accumulation score,library stock concentration: 13.1 mM,inactive: ≤ -0.003
COc1ccc2c(c1)N(C[C@H](C)CN(C)C)c1ccccc1S2 [Methotrimeprazine maleat salt],scaled lipid accumulation score,,inactive: 0.642
"C/C=C1\NC(=O)[C@H]2CSSCC/C=C/[C@H](CC(=O)N[C@H](C(C)C)C(=O)N2)OC(=O)[C@H](C(C)C)NC1=O [Romidepsin (FK228, Depsipeptide)]",scaled lipid accumulation score,[1],inactive: 0.521
same,scaled lipid accumulation score,[2],inactive: 0.472
O=C(O)CC[C@H]1CC[C@@](c2cc(F)ccc2F)(S(=O)(=O)c2ccc(Cl)cc2)CC1,scaled lipid accumulation score,[1],inactive: 0.022
same,scaled lipid accumulation score,[2],inactive: ≤ 0
CCCCC/C=C\C/C=C\C/C=C\C/C=C\CCCC(=O)OCc1ccsc1,scaled lipid accumulation score,[3],inactive: ≤ 0
CCCN(CCC)C(=O)C(CCC(=O)O)NC(=O)c1ccccc1 (centres undefined) [Proglumide],scaled lipid accumulation score,,inactive: 0.057
same,scaled lipid accumulation score,[4],inactive: ≤ 0
same,scaled lipid accumulation score,[2],inactive: ≤ 0 and inactive: ≤ -0.009
CO[C@@]1(NC(=O)CSCC#N)C(=O)N2C(C(=O)O)=C(CSc3nnnn3C)CS[C@@H]21 [Cefmetazole sodium],scaled lipid accumulation score,[2],inactive: 0.006 and inactive: ≤ 0
CO[C@@]1(NC(=O)CSCC#N)C(=O)N2C(C(=O)O)=C(CSc3nnnn3C)CS[C@@H]21 [Cefmetazole sodium salt],scaled lipid accumulation score,,inactive: ≤ 0
CC(C)OC(=O)CCC/C=C/C[C@@H]1[C@@H](/C=C/[C@H](O)CCc2ccccc2)[C@H](O)C[C@@H]1O,scaled lipid accumulation score,[3],inactive: ≤ 0
COc1ccc2[nH]c(I)c(CCNC(C)=O)c2c1 [2-Iodomelatonin],scaled lipid accumulation score,[2],inactive: 0.011
CN(C)CC(C)(C)CNc1nn2c(-c3ccccc3)nnc2cc1C1CCC1,scaled lipid accumulation score,[5],inactive: ≤ -0.005
same,scaled lipid accumulation score,[6],inactive: ≤ -0.005
same,scaled lipid accumulation score,[2],inactive: 0.159
O=c1cc(N2CCOCC2)oc2c1ccc1ccccc12 [DNA-PK Inhibitor II],scaled lipid accumulation score,[1],inactive: ≤ 0
O=c1cc(N2CCOCC2)oc2c1ccc1ccccc12,scaled lipid accumulation score,[7],inactive: ≤ 0
same,scaled lipid accumulation score,[5],inactive: ≤ 0
same,scaled lipid accumulation score,[6],inactive: ≤ 0
same,scaled lipid accumulation score,[2],inactive: ≤ 0 and inactive: 0.033
CCOC(=O)C(C)(C)Oc1ccc(Cl)cc1 [Clofibrate],scaled lipid accumulation score,[3],inactive: 0.089
same,scaled lipid accumulation score,[2],inactive: ≤ 0
"c1cnc2c(c1)ccc1cccnc12 [1,10-Phenanthroline monohydrate]",scaled lipid accumulation score,[2],inactive: 0.15
CC(C)NC[C@H](O)COc1ccc(CC(N)=O)cc1 [S-(-)-Atenolol],scaled lipid accumulation score,[2],inactive: 0.011
CC(C)NC[C@H](O)COc1ccc(CC(N)=O)cc1 [S(-)-Atenolol],scaled lipid accumulation score,[2],inactive: ≤ 0
CC(C)NC[C@H](O)COc1ccc(CC(N)=O)cc1 [(S)-(-)-Atenolol],scaled lipid accumulation score,,inactive: 0.114
CCC(NC(C)C)C(O)c1ccc(O)c(O)c1 (centres undefined) [Isoetharine mesylate],scaled lipid accumulation score,[4],inactive: ≤ 0
CCC(NC(C)C)C(O)c1ccc(O)c(O)c1 (centres undefined) [Isoetharine mesylate salt],scaled lipid accumulation score,,inactive: ≤ 0
CCC(NC(C)C)C(O)c1ccc(O)c(O)c1 (centres undefined) [Isotharine mesylate],scaled lipid accumulation score,[2],inactive: 0.037
CCC(Cc1c(I)cc(I)c(N)c1I)C(=O)O (centres undefined) [Iopanic acid],scaled lipid accumulation score,library stock concentration: 3.5 mM,inactive: ≤ 0
same,scaled lipid accumulation score,[2],inactive: ≤ -0.027
CCC(Cc1c(I)cc(I)c(N)c1I)C(=O)O (centres undefined) [Iopanoic acid],scaled lipid accumulation score,,inactive: ≤ 0
CN(C)CC=CC(=O)Nc1cc2c(Nc3ccc(F)c(Cl)c3)ncnc2cc1O[C@H]1CCOC1 [Afatinib (BIBW2992)],scaled lipid accumulation score,[1],active: 1.12
CC(=O)OCCNC(=O)c1cccnc1 [N-[2-(Acetoxy)ethyl]-3-pyridinecarboxamide],scaled lipid accumulation score,[2],inactive: ≤ 0
CN1CCc2cccc3c2[C@H]1Cc1ccc(O)c(O)c1-3 [Apomorphine hydrochloride],scaled lipid accumulation score,library stock concentration: 6.6 mM,inactive: 0.018
same,scaled lipid accumulation score,[2],inactive: ≤ 0
CN1CCc2cccc3c2[C@H]1Cc1ccc(O)c(O)c1-3 [Apomorphine hydrochloride hemihydrate],scaled lipid accumulation score,[2],inactive: ≤ 0
CN1CCc2cccc3c2[C@H]1Cc1ccc(O)c(O)c1-3 [(R)-(-)-Apomorphine hydrochloride],scaled lipid accumulation score,[2],inactive: ≤ 0
CN1CCc2cccc3c2[C@H]1Cc1ccc(O)c(O)c1-3 [R(-) Apomorphine hydrochloride hemihydrate],scaled lipid accumulation score,,inactive: 0.036
CN1CCc2cccc3c2[C@H]1Cc1ccc(O)c(O)c1-3 [Apomorphine r (-)],scaled lipid accumulation score,library stock concentration: 7.5 mM,inactive: ≤ -0.006
CNC(CC(=O)O)C(=O)O [NMDA (N-Methyl-D-aspartic acid)],scaled lipid accumulation score,[1],inactive: ≤ 0
same,scaled lipid accumulation score,[2],inactive: ≤ -0.001
Cl.Clc1ccc(Cn2c(CN3CCCC3)nc3ccccc32)cc1 [Clemizole hydrochloride],scaled lipid accumulation score,[2],active: 0.991
C[C@]12CC[C@@H]3c4ccc(O)cc4CC[C@H]3[C@@H]1CC[C@@H]2OC(=O)CCC1CCCC1 [Estradiol Cypionate],scaled lipid accumulation score,[1],inactive: ≤ 0
same,scaled lipid accumulation score,[2],inactive: 0.262
C[C@]12CC[C@@H]3c4ccc(O)cc4CC[C@H]3[C@@H]1CC[C@@H]2OC(=O)CCC1CCCC1 [Estradiol cypionate],scaled lipid accumulation score,library stock concentration: 5 mM,inactive: ≤ -0.001
same,scaled lipid accumulation score,[2],inactive: ≤ 0
CC(=O)Nc1ccc(NC(=S)NC(=O)c2ccc(C(C)(C)C)cc2)cc1 [Tenovin-1],scaled lipid accumulation score,[3],inactive: ≤ 0
CCOC(=O)[C@]12CC1/C(=N\O)c1ccccc1O2 (some centres undefined),scaled lipid accumulation score,[2],inactive: ≤ 0 and inactive: 0.015
O=c1cc(-c2ccc(O)c(O)c2)oc2cc(O)cc(O)c12 [Luteolin],scaled lipid accumulation score,,inactive: ≤ 0
same,scaled lipid accumulation score,[3],inactive: ≤ 0
same,scaled lipid accumulation score,[1],inactive: 0.017
same,scaled lipid accumulation score,[2],inactive: 0.452
CCN1CCN(Cc2ccc(NC(=O)c3ccc(C)c(Oc4ccnc5[nH]ccc45)c3)cc2C(F)(F)F)CC1,scaled lipid accumulation score,[7],inactive: 0.069
same,scaled lipid accumulation score,[5],inactive: 0.308
same,scaled lipid accumulation score,[6],inactive: 0.809
same,scaled lipid accumulation score,[2],inactive: 0.792
Nc1ncn([C@H]2C[C@H](O)[C@@H](CO)O2)c(=O)n1 [Decitabine],scaled lipid accumulation score,[7],inactive: ≤ 0
same,scaled lipid accumulation score,[5],inactive: ≤ 0
same,scaled lipid accumulation score,[6],inactive: ≤ 0
same,scaled lipid accumulation score,[1],inactive: ≤ 0
same,scaled lipid accumulation score,[2],inactive: ≤ 0 and inactive: 0.012
NCCCCNCCCN [Spermidine trihydrochloride],scaled lipid accumulation score,[2],inactive: 0.017 and inactive: ≤ 0
CC(C)(C(=O)c1cccnc1)c1cccnc1 [Metyrapone],scaled lipid accumulation score,,inactive: ≤ 0
same,scaled lipid accumulation score,library stock concentration: 8.8 mM,inactive: ≤ 0
CC(C)(C(=O)c1cccnc1)c1cccnc1,scaled lipid accumulation score,[2],inactive: ≤ 0
CC(C)(S)C(N)C(=O)O (racemic),scaled lipid accumulation score,[2],inactive: ≤ 0
CC(=O)N(O)CCCCCNC(=O)CCC(=O)N(O)CCCCCNC(=O)CCC(=O)N(O)CCCCCN [Deferoxamine mesylate],scaled lipid accumulation score,,inactive: ≤ 0
same,scaled lipid accumulation score,library stock concentration: 3 mM,inactive: ≤ -0.001
same,scaled lipid accumulation score,[2],inactive: ≤ 0
O=S(=O)(c1cccc2cnccc12)N1CCNCC1,scaled lipid accumulation score,[2],inactive: 0.248
NC(Cc1cccc(-c2ccccc2CP(=O)(O)O)c1)C(=O)O (stereo not drawn) [Phenylbenzene-omega-phosphono-alpha-amino acid],scaled lipid accumulation score,[2],inactive: ≤ 0
CC(C)/N=c1\cc2n(-c3ccc(Cl)cc3)c3ccccc3nc-2cc1Nc1ccc(Cl)cc1 [Clofazimine],scaled lipid accumulation score,,inactive: 0.214
same,scaled lipid accumulation score,[1],inactive: 0.119
same,scaled lipid accumulation score,[2],inactive: 0.449
CC(C)/N=c1\cc2n(-c3ccc(Cl)cc3)c3ccccc3nc-2cc1Nc1ccc(Cl)cc1,scaled lipid accumulation score,[2],inactive: ≤ 0
O=C1Cc2cc(CCN3CCN(c4nsc5ccccc45)CC3)c(Cl)cc2N1 [Ziprasidone hydrochloride monohydrate],scaled lipid accumulation score,[2],inactive: 0.074
O=C1Cc2cc(CCN3CCN(c4nsc5ccccc45)CC3)c(Cl)cc2N1 [Ziprasidone HCl],scaled lipid accumulation score,[1],inactive: ≤ 0
same,scaled lipid accumulation score,[2],inactive: 0.045
O=C1Cc2cc(CCN3CCN(c4nsc5ccccc45)CC3)c(Cl)cc2N1,scaled lipid accumulation score,[2],inactive: 0.239
CCCCCC[C@@H]([C@@H](C)O)n1cnc2c(N)ncnc21 (racemic),scaled lipid accumulation score,library stock concentration: 18 mM,inactive: 0.052
CCCCCC[C@@H]([C@@H](C)O)n1cnc2c(N)ncnc21 (racemic) [erythro-9-(2-Hydroxy-3-nonyl)adenine hydrochloride],scaled lipid accumulation score,[2],inactive: 0.161
CCN[C@H]1C[C@H](C)S(=O)(=O)c2sc(S(N)(=O)=O)cc21 [Dorzolamide],scaled lipid accumulation score,library stock concentration: 6.2 mM,inactive: ≤ -0.006
CCN[C@H]1C[C@H](C)S(=O)(=O)c2sc(S(N)(=O)=O)cc21 [Dorzolamide hydrochloride],scaled lipid accumulation score,,inactive: ≤ 0
C[N+](C)(C)CCCCCNCC12CC3CC(CC(C3)C1)C2,scaled lipid accumulation score,[2],inactive: 0.05
CN(C)CCC(c1ccc(Br)cc1)c1ccccn1.O=C(O)/C=C\C(=O)O (centres undefined),scaled lipid accumulation score,[2],active: 0.9
